# Data reported in the supplement of paper PMC8728848.
# This is one part of the list.
# Assays:
# Experiment in all cases: glycan array binding signal (z-score within array); higher = stronger binding
# Settings in all cases: glycan notation: IUPAC condensed, linker removed
# [1] = target: Fuc(a1-2)[Gal(a1-3)]Gal(b1-4)GlcNAc(b1-2)Man(a1-3)[Fuc(a1-2)[Gal(a1-3)]Gal(b1-4)GlcNAc(b1-2)Man(a1-6)]Man(b1-4)GlcNAc(b1-4)[Fuc(a1-6)]GlcNAc
# Method in brief: (§1)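 Glycan array data came from 3228 arrays in the Consortium for Functional Glycomics database, and only arrays with an available protein sequence were kept. Glycan names were put into IUPAC-condensed notation, and columns mapping to the same glycan were averaged. The binding signal is a within-array Z-score, averaged across arrays of one protein sequence run at different concentrations or buffers and across linkers. A negative Z-score can be read as non-binding.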
# [2] = target: Fuc(a1-2)[Gal(a1-3)]Gal(b1-4)GlcNAc(b1-3)GalNAc
# Method in brief: as §1
# [3] = target: Fuc(a1-2)[Gal(a1-3)]Gal(b1-4)GlcNAc(b1-3)[Fuc(a1-2)[Gal(a1-3)]Gal(b1-4)GlcNAc(b1-6)]GalNAc
# Method in brief: as §1
# [4] = target: Fuc(a1-2)[Gal(a1-3)]Gal(b1-4)GlcNAc(b1-6)GalNAc
# Method in brief: as §1
# [5] = target: Fuc(a1-2)[Gal(a1-3)]Gal(b1-4)[Fuc(a1-3)]Glc
# Method in brief: as §1
# [6] = target: Fuc(a1-2)[Gal(a1-3)]Gal(b1-4)[Fuc(a1-3)]GlcNAc
# Method in brief: as §1
# [7] = target: Fuc(a1-2)[Gal(a1-3)]Gal(b1-4)[Fuc(a1-3)]GlcNAc(b1-3)GalNAc
# Method in brief: as §1
# [8] = target: Fuc(a1-2)[Gal(a1-4)]Gal(b1-4)GlcNAc
# Method in brief: as §1
# [9] = target: Fuc(a1-2)[GalNAc(a1-3)]Gal
# Method in brief: as §1
# [10] = target: Fuc(a1-2)[GalNAc(a1-3)]Gal(b1-3)GalNAc(a1-3)[Fuc(a1-2)]Gal(b1-4)GlcNAc
# Method in brief: as §1
# [11] = target: Fuc(a1-2)[GalNAc(a1-3)]Gal(b1-3)GalNAc(b1-3)Gal(a1-4)Gal(b1-4)Glc
# Method in brief: as §1
# [12] = target: Fuc(a1-2)[GalNAc(a1-3)]Gal(b1-3)GlcNAc
# Method in brief: as §1
# [13] = target: Fuc(a1-2)[GalNAc(a1-3)]Gal(b1-3)GlcNAc(b1-2)Man(a1-3)[Fuc(a1-2)[GalNAc(a1-3)]Gal(b1-3)GlcNAc(b1-2)Man(a1-6)]Man(b1-4)GlcNAc(b1-4)GlcNAc
# Method in brief: as §1
# [14] = target: Fuc(a1-2)[GalNAc(a1-3)]Gal(b1-3)GlcNAc(b1-2)Man(a1-3)[Fuc(a1-2)[GalNAc(a1-3)]Gal(b1-3)GlcNAc(b1-2)Man(a1-6)]Man(b1-4)GlcNAc(b1-4)[Fuc(a1-6)]GlcNAc
# Method in brief: as §1
# [15] = target: Fuc(a1-2)[GalNAc(a1-3)]Gal(b1-3)GlcNAc(b1-3)GalNAc
# Method in brief: as §1
# [16] = target: Fuc(a1-2)[GalNAc(a1-3)]Gal(b1-3)GlcNAc(b1-6)GalNAc
# Method in brief: as §1
# [17] = target: Fuc(a1-2)[GalNAc(a1-3)]Gal(b1-4)Glc
# Method in brief: as §1
# [18] = target: Fuc(a1-2)[GalNAc(a1-3)]Gal(b1-4)GlcNAc
# Method in brief: as §1
# [19] = target: Fuc(a1-2)[GalNAc(a1-3)]Gal(b1-4)GlcNAc(b1-2)Man
# Method in brief: as §1
# [20] = target: Fuc(a1-2)[GalNAc(a1-3)]Gal(b1-4)GlcNAc(b1-2)Man(a1-3)[Fuc(a1-2)[GalNAc(a1-3)]Gal(b1-4)GlcNAc(b1-2)Man(a1-6)]Man(b1-4)GlcNAc(b1-4)GlcNAc
# Method in brief: as §1
# [21] = target: Fuc(a1-2)[GalNAc(a1-3)]Gal(b1-4)GlcNAc(b1-2)Man(a1-3)[Fuc(a1-2)[GalNAc(a1-3)]Gal(b1-4)GlcNAc(b1-2)Man(a1-6)]Man(b1-4)GlcNAc(b1-4)[Fuc(a1-6)]GlcNAc
# Method in brief: as §1
# [22] = target: Fuc(a1-2)[GalNAc(a1-3)]Gal(b1-4)GlcNAc(b1-3)Gal(b1-4)GlcNAc
# Method in brief: as §1
# [23] = target: Fuc(a1-2)[GalNAc(a1-3)]Gal(b1-4)GlcNAc(b1-3)Gal(b1-4)GlcNAc(b1-3)Gal(b1-4)GlcNAc
# Method in brief: as §1
# [24] = target: Fuc(a1-2)[GalNAc(a1-3)]Gal(b1-4)GlcNAc(b1-3)GalNAc
# Method in brief: as §1
# [25] = target: Fuc(a1-2)[GalNAc(a1-3)]Gal(b1-4)GlcNAc(b1-3)[Fuc(a1-2)[GalNAc(a1-3)]Gal(b1-4)GlcNAc(b1-6)]GalNAc
# Method in brief: as §1
# [26] = target: Fuc(a1-2)[GalNAc(a1-3)]Gal(b1-4)GlcNAc(b1-6)GalNAc
# Method in brief: as §1
# [27] = target: Fuc(a1-2)[GalNAc(a1-3)]Gal(b1-4)[Fuc(a1-3)]GlcNAc
# Method in brief: as §1
# [28] = target: Fuc(a1-2)[GalNAc(a1-3)]Gal(b1-4)[Fuc(a1-3)]GlcNAc(b1-3)GalNAc
# Method in brief: as §1
# [29] = target: Fuc(a1-2)[GalNAc(a1-4)]Gal(b1-4)GlcNAc
# Method in brief: as §1
# [30] = target: Fuc(a1-2)[GalNAc(b1-3)]Gal
# Method in brief: as §1
# [31] = target: Fuc(a1-3)GlcNAc
# Method in brief: as §1
# [32] = target: Fuc(a1-3)[Gal(b1-4)]Glc6S
# Method in brief: as §1
# [33] = target: Fuc(a1-3)[Gal(b1-4)]GlcNAc
# Method in brief: as §1
# [34] = target: Fuc(a1-3)[Gal(b1-4)]GlcNAc(b1-2)Man
# Method in brief: as §1
# [35] = target: Fuc(a1-3)[Gal(b1-4)]GlcNAc(b1-2)Man(a1-3)[Fuc(a1-3)[Gal(b1-4)]GlcNAc(b1-2)Man(a1-6)]Man(b1-4)GlcNAc(b1-4)GlcNAc
# Method in brief: as §1
# [36] = target: Fuc(a1-3)[Gal(b1-4)]GlcNAc(b1-2)Man(a1-3)[Fuc(a1-3)[Gal(b1-4)]GlcNAc(b1-2)Man(a1-6)]Man(b1-4)GlcNAc(b1-4)[Fuc(a1-6)]GlcNAc
# Method in brief: as §1
# [37] = target: Fuc(a1-3)[Gal(b1-4)]GlcNAc(b1-3)Gal(b1-3)[Fuc(a1-4)]GlcNAc
# Method in brief: as §1
# [38] = target: Fuc(a1-3)[Gal(b1-4)]GlcNAc(b1-3)Gal(b1-4)[Fuc(a1-3)]GlcNAc
# Method in brief: as §1
# [39] = target: Fuc(a1-3)[Gal(b1-4)]GlcNAc(b1-3)Gal(b1-4)[Fuc(a1-3)]GlcNAc(b1-3)Gal(b1-4)[Fuc(a1-3)]GlcNAc
# Method in brief: as §1
# [40] = target: Fuc(a1-3)[Gal(b1-4)]GlcNAc(b1-3)GalNAc
# Method in brief: as §1
# [41] = target: Fuc(a1-3)[Gal(b1-4)]GlcNAc(b1-6)GalNAc
# Method in brief: as §1
# [42] = target: Fuc(a1-3)[Gal(b1-4)]GlcNAc(b1-6)[Gal(b1-3)GlcNAc(b1-3)]Gal(b1-4)Glc
# Method in brief: as §1
# [43] = target: Fuc(a1-3)[Gal(b1-4)]GlcNAc6S
# Method in brief: as §1
# [44] = target: Fuc(a1-3)[Gal3S(b1-4)]Glc
# Method in brief: as §1
# [45] = target: Fuc(a1-3)[Gal3S(b1-4)]GlcNAc
# Method in brief: as §1
# [46] = target: Fuc(a1-3)[Gal3S(b1-4)]GlcNAc6S
# Method in brief: as §1
# [47] = target: Fuc(a1-3)[GalNAc(b1-4)]GlcNAc
# Method in brief: as §1
# [48] = target: Fuc(a1-3)[GalNAc(b1-4)]GlcNAc6S
# Method in brief: as §1
# [49] = target: Fuc(a1-4)GlcNAc
# Method in brief: as §1
# [50] = target: Fuc(b1-3)GlcNAc
# Method in brief: as §1
# [51] = target: Gal(a1-2)Gal
# Method in brief: as §1
# [52] = target: Gal(a1-3)Gal
# Method in brief: as §1
# [53] = target: Gal(a1-3)Gal(b1-3)GlcNAc
# Method in brief: as §1
# [54] = target: Gal(a1-3)Gal(b1-3)GlcNAc(b1-2)Man
# Method in brief: as §1
# [55] = target: Gal(a1-3)Gal(b1-3)GlcNAc(b1-2)Man(a1-3)[Gal(a1-3)Gal(b1-3)GlcNAc(b1-2)Man(a1-6)]Man(b1-4)GlcNAc(b1-4)GlcNAc
# Method in brief: as §1
# [56] = target: Gal(a1-3)Gal(b1-3)GlcNAc(b1-3)GalNAc
# Method in brief: as §1
# [57] = target: Gal(a1-3)Gal(b1-3)GlcNAc(b1-6)GalNAc
# Method in brief: as §1
# [58] = target: Gal(a1-3)Gal(b1-3)[Fuc(a1-4)]GlcNAc(b1-2)Man(a1-3)[Gal(a1-3)Gal(b1-3)[Fuc(a1-4)]GlcNAc(b1-2)Man(a1-6)]Man(b1-4)GlcNAc(b1-4)GlcNAc
# Method in brief: as §1
# [59] = target: Gal(a1-3)Gal(b1-4)Glc
# Method in brief: as §1
# [60] = target: Gal(a1-3)Gal(b1-4)GlcNAc
# Method in brief: as §1
binder,measurement,setting,value
Cohesin-hDCIR (Homo sapiens) (protein) LDDLDAVRIKVDTVNAKPGDTVRIPVRFSGIPSKGIANCDFVYSYDPNVLEIIEIEPGDIIVDPNPDKSFDTAVYPDRKIIVFLFAEDSGTGAYAITKDGVFATIVAKVKEGAPNGLSVIKFVEVGGFANNDLVEQKTQFFDGGANVGDTTEPATPTTPVTTPTTTDDLDAASQKYSQLLEKKTTKELVHTTLECVKKNMPVEETAWSCCPKNWKSFSSNCYFISTESASWQDSEKDCARMEAHLLVINTQEEQDFIFQNLQEESAYFVGLSDPEGQRHWQWVDQTPYNESSTFWHPREPSDPNERCVVLNFRKSPKRWGWNDVNCLGPQRSVCEMMKIHLHHHHHH,glycan array binding signal (z-score),[1],-0.393
same,glycan array binding signal (z-score),[2],-0.635
same,glycan array binding signal (z-score),[3],-0.287
same,glycan array binding signal (z-score),[4],-0.51
same,glycan array binding signal (z-score),[5],-0.659
same,glycan array binding signal (z-score),[6],-0.182
same,glycan array binding signal (z-score),[7],0.387
same,glycan array binding signal (z-score),[8],0.014
same,glycan array binding signal (z-score),[9],-0.44
same,glycan array binding signal (z-score),[10],-0.185
same,glycan array binding signal (z-score),[11],-0.235
same,glycan array binding signal (z-score),[12],-0.219
same,glycan array binding signal (z-score),[13],0.23
same,glycan array binding signal (z-score),[14],-0.571
same,glycan array binding signal (z-score),[15],0.406
same,glycan array binding signal (z-score),[16],2.04
same,glycan array binding signal (z-score),[17],-0.644
same,glycan array binding signal (z-score),[18],-0.4
same,glycan array binding signal (z-score),[19],-0.056
same,glycan array binding signal (z-score),[20],-0.364
same,glycan array binding signal (z-score),[21],-0.345
same,glycan array binding signal (z-score),[22],-0.461
same,glycan array binding signal (z-score),[23],-0.397
same,glycan array binding signal (z-score),[24],-0.401
same,glycan array binding signal (z-score),[25],-0.14
same,glycan array binding signal (z-score),[26],5.33
same,glycan array binding signal (z-score),[27],-0.198
same,glycan array binding signal (z-score),[28],0.349
same,glycan array binding signal (z-score),[29],1.42
same,glycan array binding signal (z-score),[30],3.31
same,glycan array binding signal (z-score),[31],-0.066
same,glycan array binding signal (z-score),[32],-0.026
same,glycan array binding signal (z-score),[33],0.016
same,glycan array binding signal (z-score),[34],-0.432
same,glycan array binding signal (z-score),[35],-0.176
same,glycan array binding signal (z-score),[36],-0.623
same,glycan array binding signal (z-score),[37],-0.547
same,glycan array binding signal (z-score),[38],0.161
same,glycan array binding signal (z-score),[39],-0.418
same,glycan array binding signal (z-score),[40],1.16
same,glycan array binding signal (z-score),[41],0.525
same,glycan array binding signal (z-score),[42],-0.514
same,glycan array binding signal (z-score),[43],-0.73
same,glycan array binding signal (z-score),[44],-0.257
same,glycan array binding signal (z-score),[45],0.773
same,glycan array binding signal (z-score),[46],-0.163
same,glycan array binding signal (z-score),[47],1.71
same,glycan array binding signal (z-score),[48],0.081
same,glycan array binding signal (z-score),[49],0.013
same,glycan array binding signal (z-score),[50],-0.259
same,glycan array binding signal (z-score),[51],-0.065
same,glycan array binding signal (z-score),[52],-0.678
same,glycan array binding signal (z-score),[53],2.28
same,glycan array binding signal (z-score),[54],-0.432
same,glycan array binding signal (z-score),[55],-0.058
same,glycan array binding signal (z-score),[56],-0.183
same,glycan array binding signal (z-score),[57],2.7
same,glycan array binding signal (z-score),[58],-0.471
same,glycan array binding signal (z-score),[59],-0.573
same,glycan array binding signal (z-score),[60],-0.455
